# Measurements reported in the supplement of paper PMC5499739.
# In all, about 16,000 sequences were measured (“Z-score”: median about -0.37, highest 2% from about 3.1 on). The list shows a part of the results.
# Test system: RBM10 RRM1-ZnF-RRM2 (GST-tagged construct)
# Test: RNAcompete 7-mer binding Z-score; higher = stronger binding preference
# Outline: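 Each heptamer motif was given a one-sided Z-score for enrichment across the probes that contained it. GST-tagged RBM10 constructs (20 pmol) were combined with 1.5 nmol of a designed pool of 241 399 RNAs of up to 41 nt, transcribed from microarray-derived DNA templates. Binding took place in 1 ml Hepes pH 7.8 buffer containing KCl, NaCl, glycerol, DTT, BSA and glutathione Sepharose beads for 30 min at 4°C. After four 2-min washes at 4°C, bound RNA was identified by microarray hybridisation.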
row,Sequence,RNAcompete 7-mer binding Z-score
1,GAAAUAA,-0.231
2,UCCUAUC,-0.85
3,UCAGCCA,-0.613
4,UAAGGUU,1.74
5,UAGUAAA,-0.067
6,UUGGUUU,0.337
7,CAGGCGC,-0.111
8,CGUAGCC,-0.508
9,UUUUGAA,-0.537
10,UAAUUUG,-0.417
11,CGGAGUC,0.101
12,CACGUAA,-0.318
13,UUCCAUA,-0.624
14,CCAGGGU,1.18
15,UGAUAAG,0.101
16,UUUUAAG,-0.566
17,CUUAUGG,-0.282
18,GACACGU,-0.435
19,AGGUCUA,-0.195
20,GUGGAAC,1.73
21,AAUAUCG,-0.355
22,GUCGGGG,2.62
23,UUCCUGA,-0.763

row,Sequence,RNAcompete 7-mer binding Z-score
1,ACAUUGG,0.873
2,CAGCGAU,-0.173
3,AUUCUUA,-0.734
4,UCCAGCU,-0.908
5,ACGAGCU,-0.417
6,GGACAUA,0.745
7,UGGGGGC,3.18
8,UUAGAAC,-0.417
9,UCACUGA,-0.504
10,AUUCCCA,-0.73
11,GCAUAAC,-0.107
12,AUUCAUC,-0.664
13,GGGUGCG,2.85
14,AAAACGU,-0.0197
15,GUCAGAG,0.406
16,AGUGGGG,4.66
17,UGGCCUC,-0.748
18,AUCCACA,-0.675
19,UUCACGC,-0.868
20,CAACCUG,-0.785
21,GUAUAUA,-0.0379
22,AGUAAUU,-0.402
23,UCGUAGC,-0.519

row,Sequence,RNAcompete 7-mer binding Z-score
1,CAGUACC,-0.329
2,GAUGCCC,-0.592
3,GCUUAGC,-0.566
4,GAUUCUU,-0.661
5,GCGGGGG,3.51
6,CCGAACC,-0.861
7,CGCUAAA,-0.694
8,CAUAAUU,-0.872
9,UGAGAUU,-0.0853
10,CACGGGA,1.66
11,AACUGAC,-0.61
12,AAACAAU,-0.0598
13,CGUUACC,-0.617
14,UUCUGAG,-0.588
15,UAACUUU,-0.774
16,CAAACCA,-0.599
17,UUACGAC,-0.533
18,AAACCAG,0.188
19,GUUUAGG,1.16
20,UGACCAU,-0.515
21,UAUGUUA,-0.435
22,GGCUGAC,-0.0343
23,UCACACA,-0.548

row,Sequence,RNAcompete 7-mer binding Z-score
1,CACCGUG,-0.318
2,UCAAUUG,-0.384
3,CGUACAU,-0.373
4,CCGUUGG,0.228
5,UCCACUG,-0.606
6,GUCAAGU,-0.0925
7,GUGGUUG,2.15
8,GGAUUUU,-0.165
9,AACGCUG,-0.442
10,UAUUUGU,-0.657
11,GCGAACC,-0.289
12,GGCGCAA,0.497
13,AUUUGCG,-0.653
14,CUGAUCC,-0.836
15,UGCAUCG,-0.42
16,CGUUGCC,-0.653
17,GGCAACA,0.698
18,CAACUUA,-0.708
19,CAUGGCA,0.286
20,CAAUAGG,1.3
21,ACCCGAC,-0.759
22,GCCUUAC,-0.81
23,CAUGGUG,1.13
